Our source for the localisation_or_trafficking values is article PMC12775950.

The series is described as follows: extracellular HiBiT surface luminescence, HEK293T. The note with it: glycan lost; control: wild type. For orientation: The HiBiT peptide binds its large partner to form an active luciferase.

B1: GPRC5B: N30S (protein)
parent chain: MFVASERKMRAHQVLTFLLLFVITSVASENASTSRGCGLDLLPQYVSLCDLDAIWGIVVEAVAGAGALITLLLMLILLVRLPFIKEKEKKSPVGLHFLFLLGTLGLFGLTFAFIIQEDETICSVRRFLWGVLFALCFSCLLSQAWRVRRLVRHGTGPAGWQLVGLALCLMLVQVIIAVEWLVLTVLRDTRPACAYEPMDFVMALIYDMVLLVVTLGLALFTLCGKFKRWKLNGAFLLITAFLSVLIWVAWMTMYLFGNVKLQQGDAWNDPTLAITLAASGWVFVIFHAIPEIHCTLLPALQENTPNYFDTSQPRMRETAFEEDVQLPRAYMENKAFSMDEHNAALRTAGFPNGSLGKRPSGSLGKRPSAPFRSNVYQPTEMAVVLNGGTIPTAPPSHTGRHLW
Take B1: the localisation_or_trafficking entry was “no change”.
